{"source": "paper PMC9911399", "about": "“Two distinct binding modes provide the RNA-binding protein RbFox with extraordinary sequence specificity”", "binders": {"B1": {"name": "GACCCGC (DNA:RNA)", "RNA": "GGGAGACCGGAAUUCAGAUUGUCCGACCCGCUUAAAUCCCGUCGUAGCCACCA", "DNA 1": "CAATCTGAATTCCGGTCTCCC", "DNA 2": "TGGTGGCTACGACGGGATT"}, "B2": {"name": "AAGUACG (DNA:RNA)", "RNA": "B1 RNA with G25A, C27G, C28U, C29A, G30C, C31G", "DNA 1": "CAATCTGAATTCCGGTCTCCC", "DNA 2": "TGGTGGCTACGACGGGATT"}, "B3": {"name": "CAACAUA (DNA:RNA)", "RNA": "B1 RNA with G25C, C27A, C29A, G30U, C31A", "DNA 1": "CAATCTGAATTCCGGTCTCCC", "DNA 2": "TGGTGGCTACGACGGGATT"}, "B4": {"name": "ACAAGAA (DNA:RNA)", "RNA": "GGGAGACCGGAAUUCAGAUUGUCCACAAGAAUUAAAUCCCGUCGUAGCCACCA", "DNA 1": "CAATCTGAATTCCGGTCTCCC", "DNA 2": "TGGTGGCTACGACGGGATT"}, "B5": {"name": "CCCGACU (DNA:RNA)", "RNA": "B4 RNA with A25C, A27C, A28G, G29A, A30C, A31U", "DNA 1": "CAATCTGAATTCCGGTCTCCC", "DNA 2": "TGGTGGCTACGACGGGATT"}, "B6": {"name": "GACCAGC (DNA:RNA)", "RNA": "B1 RNA with C29A", "DNA 1": "CAATCTGAATTCCGGTCTCCC", "DNA 2": "TGGTGGCTACGACGGGATT"}, "B7": {"name": "GCGAACC (DNA:RNA)", "RNA": "B4 RNA with A25G, A27G, G29A, A30C, A31C", "DNA 1": "CAATCTGAATTCCGGTCTCCC", "DNA 2": "TGGTGGCTACGACGGGATT"}, "B8": {"name": "GUAAAAC (DNA:RNA)", "RNA": "B4 RNA with A25G, C26U, G29A, A31C", "DNA 1": "CAATCTGAATTCCGGTCTCCC", "DNA 2": "TGGTGGCTACGACGGGATT"}, "B9": {"name": "CUGUCUU (DNA:RNA)", "RNA": "B1 RNA with G25C, A26U, C27G, C28U, G30U, C31U", "DNA 1": "CAATCTGAATTCCGGTCTCCC", "DNA 2": "TGGTGGCTACGACGGGATT"}, "B10": {"name": "CUCCCCU (DNA:RNA)", "RNA": "B1 RNA with G25C, A26U, G30C, C31U", "DNA 1": "CAATCTGAATTCCGGTCTCCC", "DNA 2": "TGGTGGCTACGACGGGATT"}, "B11": {"name": "CGGGGAG (DNA:RNA)", "RNA": "B4 RNA with A25C, C26G, A27G, A28G, A31G", "DNA 1": "CAATCTGAATTCCGGTCTCCC", "DNA 2": "TGGTGGCTACGACGGGATT"}, "B12": {"name": "UCUGGUU (DNA:RNA)", "RNA": "B4 RNA with A25U, A27U, A28G, A30U, A31U", "DNA 1": "CAATCTGAATTCCGGTCTCCC", "DNA 2": "TGGTGGCTACGACGGGATT"}, "B13": {"name": "CUACACG (DNA:RNA)", "RNA": "B4 RNA with A25C, C26U, A28C, G29A, A30C, A31G", "DNA 1": "CAATCTGAATTCCGGTCTCCC", "DNA 2": "TGGTGGCTACGACGGGATT"}, "B14": {"name": "CGCCGGA (DNA:RNA)", "RNA": "B1 RNA with G25C, A26G, C29G, C31A", "DNA 1": "CAATCTGAATTCCGGTCTCCC", "DNA 2": "TGGTGGCTACGACGGGATT"}, "B15": {"name": "UGUUGUC (DNA:RNA)", "RNA": "B4 RNA with A25U, C26G, A27U, A28U, A30U, A31C", "DNA 1": "CAATCTGAATTCCGGTCTCCC", "DNA 2": "TGGTGGCTACGACGGGATT"}, "B16": {"name": "GUUACGA (DNA:RNA)", "RNA": "B1 RNA with A26U, C27U, C28A, C31A", "DNA 1": "CAATCTGAATTCCGGTCTCCC", "DNA 2": "TGGTGGCTACGACGGGATT"}, "B17": {"name": "ACUUCGC (DNA:RNA)", "RNA": "B1 RNA with G25A, A26C, C27U, C28U", "DNA 1": "CAATCTGAATTCCGGTCTCCC", "DNA 2": "TGGTGGCTACGACGGGATT"}, "B18": {"name": "AACAGGU (DNA:RNA)", "RNA": "B4 RNA with C26A, A27C, A30G, A31U", "DNA 1": "CAATCTGAATTCCGGTCTCCC", "DNA 2": "TGGTGGCTACGACGGGATT"}, "B19": {"name": "GUACAGG (DNA:RNA)", "RNA": "B1 RNA with A26U, C27A, C29A, C31G", "DNA 1": "CAATCTGAATTCCGGTCTCCC", "DNA 2": "TGGTGGCTACGACGGGATT"}, "B20": {"name": "AGAAAAU (DNA:RNA)", "RNA": "B4 RNA with C26G, G29A, A31U", "DNA 1": "CAATCTGAATTCCGGTCTCCC", "DNA 2": "TGGTGGCTACGACGGGATT"}, "B21": {"name": "GUCUUGG (DNA:RNA)", "RNA": "B1 RNA with A26U, C28U, C29U, C31G", "DNA 1": "CAATCTGAATTCCGGTCTCCC", "DNA 2": "TGGTGGCTACGACGGGATT"}, "B22": {"name": "CACGAUA (DNA:RNA)", "RNA": "B1 RNA with G25C, C28G, C29A, G30U, C31A", "DNA 1": "CAATCTGAATTCCGGTCTCCC", "DNA 2": "TGGTGGCTACGACGGGATT"}, "B23": {"name": "AUCAUCG (DNA:RNA)", "RNA": "B4 RNA with C26U, A27C, G29U, A30C, A31G", "DNA 1": "CAATCTGAATTCCGGTCTCCC", "DNA 2": "TGGTGGCTACGACGGGATT"}, "B24": {"name": "UCGUUAG (DNA:RNA)", "RNA": "B4 RNA with A25U, A27G, A28U, G29U, A31G", "DNA 1": "CAATCTGAATTCCGGTCTCCC", "DNA 2": "TGGTGGCTACGACGGGATT"}, "B25": {"name": "ACCUUGA (DNA:RNA)", "RNA": "B4 RNA with A27C, A28U, G29U, A30G", "DNA 1": "CAATCTGAATTCCGGTCTCCC", "DNA 2": "TGGTGGCTACGACGGGATT"}, "B26": {"name": "AUGUGAG (DNA:RNA)", "RNA": "B4 RNA with C26U, A27G, A28U, A31G", "DNA 1": "CAATCTGAATTCCGGTCTCCC", "DNA 2": "TGGTGGCTACGACGGGATT"}, "B27": {"name": "GUAUGCC (DNA:RNA)", "RNA": "B4 RNA with A25G, C26U, A28U, A30C, A31C", "DNA 1": "CAATCTGAATTCCGGTCTCCC", "DNA 2": "TGGTGGCTACGACGGGATT"}, "B28": {"name": "GUAUCAC (DNA:RNA)", "RNA": "B1 RNA with A26U, C27A, C28U, G30A", "DNA 1": "CAATCTGAATTCCGGTCTCCC", "DNA 2": "TGGTGGCTACGACGGGATT"}, "B29": {"name": "AUAUCCU (DNA:RNA)", "RNA": "B4 RNA with C26U, A28U, G29C, A30C, A31U", "DNA 1": "CAATCTGAATTCCGGTCTCCC", "DNA 2": "TGGTGGCTACGACGGGATT"}, "B30": {"name": "AUAUGUG (DNA:RNA)", "RNA": "B4 RNA with C26U, A28U, A30U, A31G", "DNA 1": "CAATCTGAATTCCGGTCTCCC", "DNA 2": "TGGTGGCTACGACGGGATT"}, "B31": {"name": "CAAUGUU (DNA:RNA)", "RNA": "B4 RNA with A25C, C26A, A28U, A30U, A31U", "DNA 1": "CAATCTGAATTCCGGTCTCCC", "DNA 2": "TGGTGGCTACGACGGGATT"}}, "note": "Numbering of substitutions follows the chain as printed; changes in the protein carry UniProt numbers. The list shows a part of the results.", "data": [{"target": "T1, RBFOX1 RRM RbFoxmut (Fox-RRM*) (Homo sapiens, UniProt Q9NWB1 109-208, R118D;E147R;N151S;E152T)", "T1 sequence": "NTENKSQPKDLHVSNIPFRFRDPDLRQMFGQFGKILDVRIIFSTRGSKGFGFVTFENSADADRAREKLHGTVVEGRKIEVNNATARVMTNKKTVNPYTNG", "test": "EMSA; HiTS-Eq, 1 nM pool, 10 min; buffer printed only for the single-RNA assays: 10 mM Tris pH 7.5, 150 mM NaCl, 3.4 mM EDTA, 0.001% NP-40, 30 C", "conditions": "tags: His6 N-terminal (pET28a); label: 5' 32P", "outline": "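These values rest on relative association constants, computed from read-count changes of each RNA species versus the control reaction and normalised to the cognate motif. Reads came from free RNA recovered by 8% native PAGE after purified RbFox RRM (wild type or mutant) at increasing concentrations was equilibrated for 10 min in 50 µL with 1 nM of a 5′-radiolabelled pool with 7 randomized nucleotides and DNA-annealed flanks.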", "values": [{"binder": "B1", "binding signal": "0.0718 KA relative to UGCAUGU"}, {"binder": "B2", "binding signal": "0.127 KA relative to UGCAUGU"}, {"binder": "B3", "binding signal": "0.0912 KA relative to UGCAUGU"}, {"binder": "B4", "binding signal": "0.138 KA relative to UGCAUGU"}, {"binder": "B5", "binding signal": "0.0768 KA relative to UGCAUGU"}, {"binder": "B6", "binding signal": "0.079 KA relative to UGCAUGU"}, {"binder": "B7", "binding signal": "0.0798 KA relative to UGCAUGU"}, {"binder": "B8", "binding signal": "0.0746 KA relative to UGCAUGU"}, {"binder": "B9", "binding signal": "0.0668 KA relative to UGCAUGU"}, {"binder": "B10", "binding signal": "0.057 KA relative to UGCAUGU"}, {"binder": "B11", "binding signal": "0.12 KA relative to UGCAUGU"}, {"binder": "B12", "binding signal": "0.0853 KA relative to UGCAUGU"}, {"binder": "B13", "binding signal": "0.0908 KA relative to UGCAUGU"}, {"binder": "B14", "binding signal": "0.0866 KA relative to UGCAUGU"}, {"binder": "B15", "binding signal": "0.468 KA relative to UGCAUGU"}, {"binder": "B16", "binding signal": "0.111 KA relative to UGCAUGU"}, {"binder": "B17", "binding signal": "0.107 KA relative to UGCAUGU"}, {"binder": "B18", "binding signal": "0.0863 KA relative to UGCAUGU"}, {"binder": "B19", "binding signal": "0.0913 KA relative to UGCAUGU"}, {"binder": "B20", "binding signal": "0.072 KA relative to UGCAUGU"}, {"binder": "B21", "binding signal": "0.403 KA relative to UGCAUGU"}, {"binder": "B22", "binding signal": "0.105 KA relative to UGCAUGU"}, {"binder": "B23", "binding signal": "0.148 KA relative to UGCAUGU"}, {"binder": "B24", "binding signal": "0.146 KA relative to UGCAUGU"}, {"binder": "B25", "binding signal": "0.0971 KA relative to UGCAUGU"}, {"binder": "B26", "binding signal": "0.17 KA relative to UGCAUGU"}, {"binder": "B27", "binding signal": "0.278 KA relative to UGCAUGU"}, {"binder": "B28", "binding signal": "0.125 KA relative to UGCAUGU"}, {"binder": "B29", "binding signal": "0.0827 KA relative to UGCAUGU"}, {"binder": "B30", "binding signal": "0.19 KA relative to UGCAUGU"}, {"binder": "B31", "binding signal": "0.109 KA relative to UGCAUGU"}]}]}
